Target: the molecule itself
Assay: SEC + native gel or EMSA

B1: TER ATPase (transitional endoplasmic reticulum ATPase of rat liver) (enzyme)
chain: not shown
B1 was tested, and the “stoichiometry N” value was 6.

Source: publication PMC2120312 (The Journal of Cell Biology, 1994)
